Screen size: about 310,000 compounds; about 14,000 (4.5%) showed an effect of 50% or more. Effects have a minus sign here. The list shows a part of the results.
Target: human ether-à-go-go-related gene (hERG) potassium channel (human, UniProt Q12809)
Experiment: primary screen, population patch clamp on CHO cells stably expressing hERG
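Also: peak tail current of the secondary pulse compared with the same well before compound.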

Sequence of human ether-à-go-go-related gene (hERG) potassium channel (Q12809 whole entry, looked up): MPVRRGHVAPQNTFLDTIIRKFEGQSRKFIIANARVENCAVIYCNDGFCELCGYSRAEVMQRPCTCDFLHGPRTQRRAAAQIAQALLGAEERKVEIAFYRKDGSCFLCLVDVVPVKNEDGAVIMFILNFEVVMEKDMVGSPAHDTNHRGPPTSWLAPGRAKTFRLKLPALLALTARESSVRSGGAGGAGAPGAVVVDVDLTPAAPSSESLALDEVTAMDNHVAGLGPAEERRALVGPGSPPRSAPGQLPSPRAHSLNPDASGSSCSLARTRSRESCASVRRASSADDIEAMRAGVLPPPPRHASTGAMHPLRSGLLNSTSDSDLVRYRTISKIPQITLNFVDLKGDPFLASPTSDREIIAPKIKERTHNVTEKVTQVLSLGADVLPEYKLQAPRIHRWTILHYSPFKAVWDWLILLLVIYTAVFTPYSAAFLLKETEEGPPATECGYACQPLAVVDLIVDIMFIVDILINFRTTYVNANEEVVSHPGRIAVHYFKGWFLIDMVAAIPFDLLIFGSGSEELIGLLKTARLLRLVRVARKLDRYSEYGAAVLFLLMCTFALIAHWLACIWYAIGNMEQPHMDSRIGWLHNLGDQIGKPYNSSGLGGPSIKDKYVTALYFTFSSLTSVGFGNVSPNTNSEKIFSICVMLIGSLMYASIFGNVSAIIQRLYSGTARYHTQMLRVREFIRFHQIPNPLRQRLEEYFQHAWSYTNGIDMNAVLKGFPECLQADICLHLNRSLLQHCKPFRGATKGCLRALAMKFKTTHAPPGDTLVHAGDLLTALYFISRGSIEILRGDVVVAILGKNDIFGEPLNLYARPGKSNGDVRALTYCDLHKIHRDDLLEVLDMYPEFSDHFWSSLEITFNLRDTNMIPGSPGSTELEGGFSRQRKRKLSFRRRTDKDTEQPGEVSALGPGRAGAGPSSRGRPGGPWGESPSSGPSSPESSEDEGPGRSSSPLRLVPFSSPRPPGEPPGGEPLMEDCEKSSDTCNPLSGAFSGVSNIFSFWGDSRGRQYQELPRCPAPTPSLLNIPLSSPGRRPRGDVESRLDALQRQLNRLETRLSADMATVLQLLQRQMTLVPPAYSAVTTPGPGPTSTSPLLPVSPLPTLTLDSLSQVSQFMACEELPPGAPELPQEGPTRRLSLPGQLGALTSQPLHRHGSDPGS

SMILES	hERG current change (%, negative = inhibition) at 10uM
CCOC(=O)c1nc(Nc2ccc(OC)cc2)c2ccccc2n1	2.45%
COc1cccc(/C=C2/Sc3ccc(C(=O)NCCN4CCCCCC4)cc3NC2=O)c1	-47.3%
CC(=O)Nc1ccc(S(=O)(=O)Nc2nc3ccccc3nc2-n2ccc(=NC(=O)c3ccccc3)cc2)cc1	15.1%
O=C(CSc1nnc(CNC(=O)c2ccco2)o1)Nc1ccccc1F	17%
Cc1cc(C(=O)N/N=C/c2ccco2)n[nH]1	31.6%
COc1cc(S(=O)(=O)N2CCCCC2)ccc1NC(=O)c1ccncc1	-30.8%
CN(C)S(=O)(=O)c1ccc(C(=O)Nc2nc(-c3cc4ccccc4o3)cs2)cc1	-3.13%
COc1cc(OC)cc(-c2nnc(SCC(=O)N3c4ccccc4Sc4ccccc43)o2)c1	15.3%
COc1ccccc1N1CCN(S(=O)(=O)c2ccc(-n3cnnn3)c(C)c2)CC1	-13.7%
CC(C)Cn1c(SCC(=O)N2CCCc3ccccc32)nc2ccccc2c1=O	4.73%
COC(=O)c1c(C)noc1-c1cc(C)on1	6.11%
CCOc1ccc(CCNC(=O)COC(=O)/C=C/c2ccc(C)o2)cc1OCC	1.3%
CCC1Oc2ccc(C)cc2N(CC(=O)NCCCN2CCOCC2)C1=O (stereo not drawn)	6.01%
O=C1CC(SCCc2nc3ccccc3[nH]2)C(=O)N1c1ccc(F)cc1 (stereo not drawn)	-12.5%
CN(C(=O)COC(=O)CNC(=O)C12CC3CC(CC(C3)C1)C2)C1CCS(=O)(=O)C1 (stereo not drawn)	10.9%
O=C(COC(=O)/C=C/c1ccc(S(=O)(=O)N2CCOCC2)cc1)NCc1ccc(F)cc1	-18.3%
CCOc1cc(NC(=O)C2CC2)c(OCC)cc1NC(=O)c1ccccc1OCC	-20%
Cc1cc(=O)[nH]c(SCc2cn3ccccc3n2)n1	16.4%
CCOc1ccc(CC(=O)NNC(=S)NC)cc1Br	28%
CCOC(=O)C1CCN(C(=O)COc2ccc(S(=O)(=O)NC(C)C)cc2)CC1	-10.3%
COC(=O)c1ccc(NC(=O)COC(=O)C2CC(=O)N(Cc3ccccc3)C2)cc1 (stereo not drawn)	-11.7%
C=CCSc1nc2ccccc2[nH]1	25%
COc1ccc(OC)c(NC(=O)Cc2coc3ccc(C)cc23)c1	-25%

SMILES	hERG current change (%, negative = inhibition) at 10uM
c1csc(Cc2nc(-c3ccc(-n4cccc4)cc3)no2)c1	10.5%
Cc1nc2ccc([N+](=O)[O-])cc2[nH]1	7.21%
Cc1[nH]nc2c1C(c1cccc(OC(=O)N3CCOCC3)c1)C(C#N)=C(N)O2 (stereo not drawn)	1.46%
CCN(C(=O)CSc1ccc2ccccc2c1)C1CCS(=O)(=O)C1 (stereo not drawn)	-19.5%
CC(=O)c1ccc(S(=O)(=O)NCc2cccnc2)cc1	16%
COCc1cc(/C=N\NC(=O)c2ccc(Cl)cc2)ccc1OC	-3.44%
Cc1cc(NC(=O)CCn2c(=O)sc3ccccc32)no1	-7.55%
c1nc2sc3c(c2c2nnnn12)CCC3	7.51%
CC1=C(C(=O)OCC2CCCO2)C(c2coc3ccccc3c2=O)C2=C(CC(C)(C)CC2=O)N1 (stereo not drawn)	-7.17%
Cc1onc(-c2ccc(Cl)cc2)c1-c1ccnn1S(=O)(=O)c1ccc(Cl)cc1	4.81%
NS(=O)(=O)c1ccc(Oc2ccc(S(N)(=O)=O)cc2)cc1	0.75%
COc1ccc(N=c2sc3ccccc3n2C)cc1	8.47%
CC(N=C(NC#N)Nc1ccncc1)C(C)(C)C.O (stereo not drawn)	16.2%
Cc1ccc(S(=O)(=O)N2CCN(CC(=O)Nc3ccc(N4CCOCC4)cc3)CC2)cc1C	-11.5%
CCn1ncc(Br)c1C(=O)Nc1ccc(Cl)cn1	-7.49%
N#Cc1ccc(Oc2cc(C(F)(F)F)nc(-c3ccccn3)n2)cc1	5.26%
COc1ccccc1C1Nc2ccccc2NC2=C1C(=O)CC(C)(C)C2 (stereo not drawn)	7.64%
CCC(=O)NNC(=O)CSc1nnc(-c2ccccc2)c(-c2ccccc2)n1	3.68%
CCOC(=O)C(Cc1ccc(OC)c([N+](=O)[O-])c1)NC(=O)CCC(=O)Nc1ccc(C)cc1 (stereo not drawn)	-26.2%
Cc1ccc(Cl)c(NC(=O)CCl)c1Cl	-13.4%
Cc1ccc(/C=c2/sc3nnc(-c4ccccc4Cl)n3c2=O)o1	-32.9%
CN(C)S(=O)(=O)Oc1ccc(C(=O)Nc2cccc(Cl)c2)cc1	21.9%
Cc1ccc(S(=O)(=O)Cn2nnnc2C(c2ccc(F)cc2)N2CCCCC2)cc1 (stereo not drawn)	-3.43%

SMILES	hERG current change (%, negative = inhibition) at 10uM
O=C(CN(CCc1ccccc1)S(=O)(=O)c1ccc(Cl)cc1)N/N=C/c1ccc2c(c1)OCO2	-2.68%
COc1ccc(CSc2nc(N3CCOCC3)c3c(c2C#N)CC(C)(C)OC3)cc1	-14.5%
Cc1cc(C)n(-c2nc3ccccc3c(=O)n2OCC(=O)Nc2c(C)cccc2C)n1	5.42%
N#Cc1ccc(/C=C/C(=O)O)cc1	23.2%
CC1(C)CC(NC(=S)NC2CC2)CC(C)(C)N1	15.4%
O=C(OCc1ccccn1)C1CCN(C(=O)c2ccc(Cl)cc2)CC1	-36%
CCC(c1n[nH]c(=S)n1-c1ccccc1)N(C)C (stereo not drawn)	17.6%
Cc1cc(Br)c(NC(=O)C(C)Sc2nnnn2C)c(Br)c1 (stereo not drawn)	7.7%
O=P(O)(O)COc1ccccc1O	8.87%
CC12CCC(C(=O)N3CCOCC3)([C@H](Br)C1=O)C2(C)C (stereo partly drawn)	15.6%
CC(=O)Nc1ncnc2c1c(-c1ccc(Cl)cc1)nn2C(C)(C)C	1.91%
COc1c2ccc(C(=O)NCCCCc3ccccc3)cc2nn1C	-6.65%
CNC(=O)NC(=O)COC(=O)/C=C/c1cccc(Br)c1	17.6%
CC1=CCC(C(=O)O)C(C(=O)NC2CCCCC2)C1 (stereo not drawn)	16.7%
CCOc1ccccc1Oc1coc2cc(OC(=O)N(C)C)ccc2c1=O	16.2%
O=C(Nc1ccc2c(c1)C(=O)N(CC1CCCO1)C2=O)c1ccc(Cl)c(Cl)c1 (stereo not drawn)	-11.6%
CN(Cc1cccs1)C(=O)Cn1cnc2cc([N+](=O)[O-])ccc2c1=O	14.1%
O=C(Cc1cnc2ncnn2c1)N1CCc2c([nH]c3ccccc23)C1c1ccccn1 (stereo not drawn)	-30.9%
O=C(NCCN1CCOCC1)c1cc(Sc2cccc(Cl)c2)nc2ccccc12	-77.2%
COc1cc(NC(=O)c2ccc3c(c2)OCCO3)ccc1NC(=O)c1cccs1	-9.8%
Cc1cccc(C(=O)N/N=C/c2ccc[nH]2)c1	12.1%
CC(C)c1ccc(C2CC(c3ccc(Br)cc3)=NN2C(N)=S)cc1 (stereo not drawn)	14.7%
O=C(Nc1ccc(NC(=O)c2ccco2)cc1)c1ccco1	10.6%

SMILES	hERG current change (%, negative = inhibition) at 10uM
Cc1csc2nc(CNS(=O)(=O)N(C)C)cn12	-2.66%
Cc1cccn2c(CN(C)CC3Cc4ccccc4O3)c(C(=O)N3CCCCC3)nc12 (stereo not drawn)	-25.5%
COc1ccc(NC(=O)C2=NNC(=O)CC2)cc1S(=O)(=O)N1CCCCC1	-8.63%
O=C(CN1CCN(c2ccccc2)CC1)Nc1ccc(OCc2ccccc2)cc1	2.44%
Cc1cccc(N(Cc2ccccc2)C(=O)c2cccc(S(=O)(=O)N3CC(C)OC(C)C3)c2)c1 (stereo not drawn)	-9.56%
COc1ccc(NC(=O)Nc2ccc3nccnc3c2)cc1	2.71%
O=C(O)C(Cc1ccccc1-c1ccccc1)C(=O)O	13.4%
CC(=O)Nc1ccc(Oc2ccccc2)cc1	-2.02%
Cc1sc(NC(=O)c2sc3nc4c(C)cccc4cc3c2N)c(C#N)c1C	8.29%
CC(NS(=O)(=O)c1ccccc1)C(=O)Nc1ccc(S(N)(=O)=O)cc1 (stereo not drawn)	9.52%
CN1CCN(S(=O)(=O)c2ccc(NC(=O)c3ccc([N+](=O)[O-])cc3)cc2)CC1	-48.6%
O=C(c1ccccc1)N1CCCCC(Sc2nnnn2-c2ccccc2)C1=O (stereo not drawn)	-27.4%
CSc1nc(N(C)C)nc(N(C)C#N)n1	7.32%
CC1(C)CCCC2=C1CC1C(=O)N(N)C(=O)C1C2 (stereo not drawn)	5.96%
Cc1cc(OCC(O)CN2CCc3ccccc3C2)ccc1Cl.Cl (stereo not drawn)	-53.4%
CCN1C(=O)N[C@H](c2ccccc2)C(C(C)=O)=C1C	8.38%
N#Cc1ccc(-c2nnnn2-c2ccc3c(c2)OCO3)cc1	-18.5%
CC1(C)Cc2c(cnn2-c2ccc(F)cc2)C(NC(=O)CCN2CCCCC2=O)C1 (stereo not drawn)	14.8%
CCc1nnc(NC(=O)CN2C(=O)/C(=C/c3ccc(OC)c(OC)c3)SC2=S)s1	0.819%
Cc1ccc(C2CCN(C(=O)Nc3ccccc3)C2)cc1 (stereo not drawn)	-6.4%
CCOC(=O)C(C)Oc1cccc2c(=O)n(CC(=O)NCCc3ccccc3)ccc12 (stereo not drawn)	-10.3%

From publication PMC4336329 (PLoS ONE, 2015)
